In PubChem BioAssay AID624202 (National Center for Advancing Translational Sciences (NCATS), 2012):
Out of some 380,000 compounds screened, about 4,000 (1.1%) were called active. The inconclusive results got no clear call from the source; some entries with a clear call stand among them for comparison. Calls come from the whole dose curve; as a rule, active = well fitted activation curve with a large enough effect; inconclusive = small, poorly fitted or top-dose-only effect; inactive = no such curve, though single readings can be large or run the other way. Potencies beside an inconclusive call are fits to weak or partial responses and may not hold up.

Assay: qHTS Assay to Identify Small Molecule Activators of BRCA1 Expression; note: nearly all actives have a fitted effect of over 80% in size
Conditions: MCF7-BRCA1-FFLuc reporter, luminescence, 48 h; activation: at 46.1 µM (top of the series), scaled: vehicle 0%, 10 µM genistein 100% unless noted
Method in brief: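 Quantitative HTS in MCF7 cells stably reporting BRCA1 expression via firefly luciferase. Compound treatment lasts 48 h at 37 °C in phenol-red free MEM. Activation is expressed relative to genistein at 10 microM and DMSO.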
Potency is the fitted concentration of half-maximal effect; tags give direction and shape of the fitted curve.

| Structure (SMILES) | Potency | activation |
| --- | --- | --- |
| O=C(CCc1ccccc1)Nc1cc2c(cc1Cl)OCCO2 | inconclusive: 2.82 µM [activator, partial curve, poor fit] |  |
| CS(=O)(=O)c1ccc(-c2sc3ccccc3c2C(=O)N2CCN(c3ccc(F)cc3)CC2)cc1 | inconclusive: 0.631 µM [activator, full curve, poor fit] |  |
| O=C(CCc1nnc(CCCc2ccccc2)o1)N1CCCCCC1 | inconclusive: 35.5 µM [activator, single point] |  |
| O=C(NCCc1ccccc1)c1cnc2sccn2c1=O | inconclusive: 35.5 µM [activator, single point] |  |
| Cc1cc(/C=N/NC(=O)c2ccccn2)c(C)n1-c1cccc([N+](=O)[O-])c1 | active: 10 µM |  |
| O=C(COC(=O)c1c(F)cccc1Cl)NC1CCCC1 | inconclusive: 15.8 µM [activator, partial curve, poor fit] |  |
| CCc1nnc(NC(=O)c2ccc(S(=O)(=O)N(CC(C)C)CC(C)C)cc2)o1 | inactive |  |
| Cc1ccc(/C=C(\C#N)C(=O)N2CCCC2)c(C)c1 | inconclusive: 35.5 µM [activator, single point] |  |
| O=C(CSc1nc2ccccc2c(=O)n1Cc1ccco1)NCc1ccccc1 | inactive |  |
| Cc1ccccc1N=C1Nc2ccccc2CS1 | inconclusive: 17.8 µM [activator, partial curve, poor fit] |  |
| CC(Oc1ccccc1)C(=O)Nc1nnc(C2CCCCC2)s1 (configuration not stated) | inconclusive: 35.5 µM [activator, single point] |  |
| Cc1ccc(O)c(N=Nc2ccc(S(=O)(=O)N3CCOCC3)cc2)c1 | inactive |  |
| c1ccc(-c2nc(SCC3CCCCO3)n[nH]2)cc1 (configuration not stated) | inconclusive: 12.6 µM [activator, partial curve, poor fit] |  |
| Cc1ccccc1C(=O)NC(CC(C)C)C(=O)OCc1cc(=O)n2cc(Br)ccc2n1 (configuration not stated) | inconclusive: 10 µM [activator, partial curve, poor fit] |  |
| O=C(NCc1cccs1)C1CC(c2ccc(F)cc2)=NO1 (configuration not stated) | inconclusive: 7.08 µM [activator, partial curve, poor fit] |  |
| O=C(Nc1ccc(Cl)cn1)c1ccc(COc2ccccc2Br)o1 | active: 11.2 µM |  |
| CC(=O)Nc1cc(C(=O)OCC(=O)c2ccc(C)cc2)ccc1C | inconclusive: 11.2 µM [activator, partial curve, poor fit] |  |
| O=C(CN1C(=O)S/C(=C/c2ccc(N3CCOCC3)cc2)C1=O)N1CCOCC1 | inconclusive: 4.47 µM [activator, partial curve, poor fit] |  |
| COc1ccccc1C1=NC(c2ccc(C)cc2)N=C1C (configuration not stated) | active: 10 µM |  |
| Cc1ccc(CSc2nnc(-c3ccccn3)n2N)cc1 | inconclusive: 20 µM [activator, partial curve, poor fit] |  |
| Nc1ccc2nc(-c3ccccc3)cnc2c1 | inconclusive: 0.631 µM [activator, full curve, poor fit] |  |
| COc1ccc(N=C(C)c2sc3ccccc3c2O)cc1 | active: 5.01 µM |  |
| N/C(=N\OC(=O)c1ccc2c(c1)OCO2)c1ccc(Br)cc1 | inconclusive: 12.6 µM [activator, partial curve, poor fit] |  |
| COc1c(C(=O)Nc2ccc(Br)cn2)ccc2ccccc12 | inconclusive: 28.2 µM [activator, single point] |  |

| Structure (SMILES) | Potency | activation |
| --- | --- | --- |
| COc1ccc2c(=O)c3ccccc3oc2c1 | inconclusive: 10 µM [activator, partial curve, poor fit] |  |
| Cc1ccnc(Sc2ccc([N+](=O)[O-])cn2)n1 | inconclusive: 11.2 µM [activator, single point] |  |
| COc1cccc(-n2ccnc2SCC(=O)Nc2nccs2)c1 | inconclusive: 14.1 µM [activator, partial curve, poor fit] |  |
| COc1cccc(C(=O)NCCS(=O)(=O)NC2CCCC2)c1 | inactive |  |
| COc1ccc(NC(=O)CSc2nc(SC)ns2)cc1 | active: 4.47 µM |  |
| CC(C)(C)OC(=O)NCc1ccc(CNC(=O)c2nc[nH]c2C(=O)NCc2ccc(CNC(=O)OC(C)(C)C)cc2)cc1 | inactive |  |
| CC(C)c1cc(C(=O)NCc2ccco2)no1 | inconclusive: 15.8 µM [activator, single point] |  |
| Cc1ccc(NC(=O)O/N=C/c2ccc(N(C)C)cc2)cc1 | inconclusive: 11.2 µM [activator, partial curve, poor fit] |  |
| O=C(Nc1ccc(NC(=O)c2sc3ccccc3c2Cl)cc1Cl)c1ccco1 | active: 7.94 µM |  |
| Cc1nc2c(-c3ccc(F)cc3)cnn2c(N)c1-c1ccc(F)cc1 | inconclusive: 0.631 µM [activator, full curve, poor fit] |  |
| Cc1cccc2c1-c1sc(C(=O)N3CCCCC3)cc1CO2 | active: 6.31 µM |  |
| CC(C)(O)[C@H]1Cc2cc3ccc(=O)oc3cc2O1 | inconclusive: 7.94 µM [activator, partial curve, poor fit] |  |
| Cc1ccn2cc(-c3ccc4c(c3)NC(=O)CO4)nc2c1 | inconclusive: 3.16 µM [activator, full curve, poor fit] |  |
| Cc1cc(OCC(=O)N2CCCCCC2)ccc1[N+](=O)[O-] | inconclusive: 11.2 µM [activator, partial curve, poor fit] |  |
| O=C(CSc1nc(-c2ccc(F)cc2)cs1)N1CCOCC1 | inconclusive: 14.1 µM [activator, partial curve, poor fit] |  |
| CC(=O)c1sc(NCCOc2ccc(C)cc2)nc1C | inconclusive: 12.6 µM [activator, partial curve, poor fit] |  |
| Cc1ccc(NC(=O)c2noc3c2CCCCC3)cc1C |  | inconclusive: 89.9% [activator] |
| COC(=O)c1c(-c2ccccc2)csc1N1C(=O)Nc2ccccc2N1O | active: 7.94 µM |  |
| O=C(NOCc1ccccc1)c1ccccc1 | active: 1.26 µM |  |
| Cc1nn(CC(=O)NCCC2=CCCCC2)c(C)c1[N+](=O)[O-] | inactive |  |
| COc1ccc(CNC(=O)c2ccc(N3CCCC3=O)cc2)cc1 | inconclusive: 31.6 µM [activator, single point] |  |
| Cc1ccc(Cc2cnc(NC(=O)c3cccs3)s2)cc1 | inconclusive: 0.631 µM [activator, full curve, poor fit] |  |
| c1ccc(Nc2nc3ccccc3o2)cc1 | inconclusive: 22.4 µM [activator, single point] |  |
| C=CCn1c(C(C)NC(=O)c2cccs2)n[nH]c1=S (configuration not stated) | inactive |  |

| Structure (SMILES) | Potency | activation |
| --- | --- | --- |
| Cc1ccc(Cc2c(-c3cccc(Br)c3)nc3ccc(Br)cn23)cc1 | inconclusive: 28.2 µM [activator, single point] |  |
| CCCCOc1ccc(N=Nc2ccc(N)nc2N)cn1 | inconclusive: 1.78 µM [activator, full curve, poor fit] |  |
| Cc1cc(/C=N/NC(=O)c2cccc(F)c2)c(C)n1-c1ccccc1 | inconclusive: 7.08 µM [activator, full curve, poor fit] |  |
| O=c1[nH]cnc2cc(-c3ccccc3)sc12 | active: 2.82 µM |  |
| Cc1sc(NC(=O)/C=C/c2ccco2)c(C(=O)O)c1C | active: 2.24 µM |  |
| COc1ccccc1CNC(=O)c1ccc2nc(N3CCCCC3)sc2c1 | inconclusive: 12.6 µM [activator, partial curve, poor fit] |  |
| CN(C)/C=N/c1nc(-c2ccc3c(c2)OCO3)cs1 | inconclusive: 2.51 µM [activator, full curve, poor fit] |  |
| O=C(CC1Nc2ccccc2NC1=O)Nc1ccc2c(c1)OCO2 (configuration not stated) | inconclusive: 31.6 µM [activator, single point] |  |
| COc1ccc(CN(CC2CCCO2)C(=O)CN2C(=O)C(C)Oc3ccc(C)cc32)cc1OC (configuration not stated) | inactive |  |
| COc1ccccc1/C=C/C=N/NC(=O)c1cccs1 | inconclusive: 2 µM [activator, full curve, poor fit] |  |
| CSCCNC(=O)c1ccc(OC2CCN(CCc3ccccc3)CC2)cc1 | inactive |  |
| Cc1oc(-c2ccccc2F)nc1CS(=O)(=O)CC(=O)NCCN1CCCC1 | inactive |  |
| CCn1c(C)nc2cc(C(=O)OC)ccc21 | inconclusive: 20 µM [activator, single point] |  |
| CC(C)C(NC(=O)c1ccc(Cl)cc1)C(=O)NCC1CCCO1 (configuration not stated) | inactive |  |
| CC(C)Oc1ccc(Cn2c(=O)oc3ccccc32)cc1 | inactive |  |
| O=C(Nc1nc(-c2cccnc2)cs1)c1ccccc1F | inconclusive: 2.51 µM [activator, partial curve, poor fit] |  |
| Cc1cccc(CC(=O)NCC2CCCCC2)c1 | active: 10 µM |  |
| CCOc1ccc(NC(=O)CS(=O)CC(=O)NC2CCCc3ccccc32)cc1 (configuration not stated) | inactive |  |
| N#C/C(=N\Nc1ccc(Br)cc1)C(=N)N1CCOCC1 | active: 10 µM |  |
| O=C(c1cnn(-c2cccc(F)c2)c1)c1ccccc1O | inconclusive: 7.08 µM [activator, partial curve, poor fit] |  |
| O=C(Nc1ccccc1)C(=O)Nc1ccc2c(c1)N(C(=O)C1CC1)CCC2 | inconclusive: 0.631 µM [activator, full curve, poor fit] |  |
| COC(=O)C(Cc1ccc(OC(=O)c2ccc(C)cc2)cc1)N1Cc2ccccc2C1=O (configuration not stated) | inconclusive: 7.08 µM [activator, partial curve, poor fit] |  |
| CNc1cc(-c2ccc(OC)nc2)ncn1 | inconclusive: 12.6 µM [activator, partial curve, poor fit] |  |
| O=C(Nc1ccc2c(c1)C(=O)NC2=O)c1ccc2ncsc2c1 | inconclusive: 14.1 µM [activator, partial curve, poor fit] |  |
